Test results reported in PubChem BioAssay AID602310 (National Center for Advancing Translational Sciences (NCATS), 2012).
Out of some 410,000 compounds screened, about 310 (0.076%) were called active. The shares of active, inactive and inconclusive entries below differ from those in the screen. Calls follow the shape of the dose curve; as a rule, active = well fitted curve in the direction sought with a large enough effect; inconclusive = small, poorly fitted or top-dose-only effect; inactive = flat fitted curve, though single readings scatter. Where the call is inconclusive, the potency comes from a doubtful curve fit.

What follows are compounds tested against DNA dC->dU-editing enzyme APOBEC-3G (Homo sapiens) (UniProt Q9HC16) (assay: qHTS for Inhibitors of Vif-A3G Interactions: qHTS). Settings: HeLa A3G-eYFP + Vif (tagged APOBEC3G with the HIV-1 protein that degrades it), YFP fluorescence, overnight; series mostly up to 46.1 µM.
Method in brief: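 HeLa cells stably expressing Vif and C-terminally eYFP-tagged A3G, seeded overnight at 37 deg C, then exposed to compound by pintool overnight at 37 deg C. Rise in yellow fluorescence (Ex 488/Em 500-530, Acumen) marks blocked Vif-driven A3G degradation.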
Also: nearly all actives have a fitted effect of over 60% in size.
Potency is read from the fitted curve at half-maximal effect; tags tell the direction and shape of the fitted curve.

Sequence of UniProt Q9HC16 (Q9HC16 whole entry, looked up): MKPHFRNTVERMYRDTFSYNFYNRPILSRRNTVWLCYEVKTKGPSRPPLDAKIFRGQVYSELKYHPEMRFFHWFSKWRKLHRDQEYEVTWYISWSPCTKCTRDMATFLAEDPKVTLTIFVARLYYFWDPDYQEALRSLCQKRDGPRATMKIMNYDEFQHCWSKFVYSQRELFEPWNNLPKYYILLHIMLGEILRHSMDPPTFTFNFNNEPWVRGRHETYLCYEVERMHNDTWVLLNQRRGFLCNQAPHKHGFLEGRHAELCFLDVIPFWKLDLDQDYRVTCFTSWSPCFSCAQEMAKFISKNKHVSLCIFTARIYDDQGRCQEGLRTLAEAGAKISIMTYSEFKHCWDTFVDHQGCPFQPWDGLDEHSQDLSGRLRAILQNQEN

Row | SMILES | Potency
1 | COc1ccc(OC)c(NC(=O)Nc2nc(C(C)N)cs2)c1 (stereo unspecified) | inactive
2 | COc1ccccc1NC(=O)c1c(N=Cc2c(O)ccc3ccccc23)cnn1C | inconclusive: 3.98 µM [inhibitor, full curve]
3 | CCO[C@H]1OC(C(=O)Nc2ccccc2)=C[C@@H](c2ccc(C(F)(F)F)cc2)[C@@H]1CCCO | inactive
4 | c1ccc(-c2nccc(-c3ccc4c(c3)OCO4)n2)cc1 | inconclusive: 1.78 µM [inhibitor, full curve, poor fit]
5 | FC(F)(F)c1ccc(N2CCN(c3ncnc4c3nnn4Cc3ccccc3)CC2)nc1 | inactive
6 | COc1ccc(C(=O)C(C)[n+]2ccc(C)c3ccccc32)cc1[N+](=O)[O-] (stereo unspecified) | active: 5.62 µM
7 | CCOC(=O)CCc1ccc(NC(=O)/C=C/c2ccc([N+](=O)[O-])o2)cc1 | active: 7.94 µM
8 | C=CCOn1c(=O)c(C)[n+]([O-])c2ccccc21 | inconclusive: 22.4 µM [inhibitor, single point]
9 | CCOC(=O)c1ccc(NS(=O)(=O)c2ccc3[nH]c4c(c3c2)CCCCC4)cc1 | inconclusive: 20 µM [inhibitor, single point]
10 | COc1ccc(C2CC(c3c(O)cc(C)oc3=O)=NCCS2)c(OC)c1 (stereo unspecified) | inconclusive: 1.58 µM [inhibitor, full curve, poor fit]
11 | O=C(Nc1ccc([N+](=O)[O-])cc1)c1cc(-c2ccccn2)nc2c(Cl)cccc12 | inconclusive: 12.6 µM [inhibitor, partial curve, poor fit]
12 | N#Cc1ccc2ccn(CC(=O)NCc3ccccc3)c2c1 | inconclusive: 11.2 µM [inhibitor, single point]
13 | O=C(Nc1nc(-c2ccccn2)cs1)c1ccc(Cl)s1 | inconclusive: 35.5 µM [inhibitor, single point]
14 | CCN(CC)c1ccc(/C=N/NC(=O)c2ccc3nc[nH]c3c2)c(O)c1 | inconclusive: 35.5 µM [inhibitor, single point]
15 | Cc1ccc(C(=O)NN=C2CCCC2)cc1C | inconclusive: 22.4 µM [inhibitor, single point]
16 | COc1cccc(N2CCN(C(=O)c3ccc(CS(=O)c4ccc(Cl)cc4)o3)CC2)c1 (stereo unspecified) | inconclusive: 0.891 µM [inhibitor, full curve, poor fit]
17 | O=C1/C(=C/c2ccccc2)CN(C(=O)CCN2CCOCC2)C/C1=C\c1ccccc1 | inconclusive: 3.55 µM [inhibitor, full curve, poor fit]
18 | CCOC(=O)c1c(N2C(=O)CC(Sc3ccccc3C(=O)O)C2=O)sc2c1CCCC2 (stereo unspecified) | inactive
19 | N=C1S/C(=C\c2ccc(-c3ccccc3C(=O)O)o2)C(=O)N1c1ccc2c(c1)OCO2 | inactive
20 | COc1ccccc1N1CCN(CC(O)COc2ccc(C)cc2C(C)(C)C)CC1 (stereo unspecified) | inconclusive: 35.5 µM [inhibitor, single point]
21 | O=c1c[n+]([O-])c2ccccc2n1OCc1ccccn1 | inconclusive: 22.4 µM [inhibitor, single point]

Row | SMILES | Potency
22 | Cc1ccc(NC(=O)/C=C/c2cccs2)c([N+](=O)[O-])c1 | inconclusive: 2.82 µM [inhibitor, full curve, poor fit]
23 | CC1CCN(C(=O)C(C)OC(=O)c2ccc(S(C)(=O)=O)c([N+](=O)[O-])c2)CC1 (stereo unspecified) | inconclusive: 3.16 µM [inhibitor, full curve]
24 | CCOc1ccccc1C1CC(=O)Nc2cc(C)c(C)cc21 (stereo unspecified) | inconclusive: 4.47 µM [inhibitor, full curve]
25 | COC(=O)c1ccc(C)cc1C1CN=NC12Cc1cc(C)ccc1C2=O (stereo unspecified) | inconclusive: 12.6 µM [inhibitor, single point]
26 | O=c1[nH][nH]c(-c2ccccc2O)c1C(C[N+](=O)[O-])c1ccccc1 (stereo unspecified) | inconclusive: 28.2 µM [inhibitor, single point]
27 | CC1(C(=O)NCc2cccs2)Cc2c(-c3ccc(C(N)=O)cc3)ccnc2O1 (stereo unspecified) | inconclusive: 10 µM [inhibitor, partial curve, poor fit]
28 | COc1ccc(S(=O)(=O)NN(C)c2nc(C(F)(F)F)nc3ccccc23)cc1 | inconclusive: 7.08 µM [inhibitor, partial curve, poor fit]
29 | O=S1(=O)C=C(Sc2nnc(-c3ccccc3)o2)c2ccccc21 | inconclusive: 10 µM [inhibitor, partial curve, poor fit]
30 | COc1ccc2oc(=O)c(-c3nc(-c4cccs4)no3)cc2c1 | inconclusive: 10 µM [inhibitor, partial curve]
31 | OCCOCCn1c(C(CO)Nc2nc(-c3cccc(Br)c3)cs2)nc2ccccc21 (stereo unspecified) | inconclusive: 35.5 µM [inhibitor, single point]
32 | Cc1ccc2cccc(NS(=O)(=O)c3ccccc3)c2n1 | inconclusive: 15.8 µM [inhibitor, single point]
33 | COC(=O)c1c(N2C(=O)[C@H]3[C@@H](C2=O)[C@]2(C(=O)Nc4c(C)cc(C)cc42)N2CCC[C@@H]32)sc(C)c1C | inconclusive: 10 µM [inhibitor, partial curve, poor fit]
34 | CCN(CC)C(=O)c1cccc(-c2csc(C(C)(O)c3ccc(OC)cc3)n2)c1 (stereo unspecified) | inconclusive: 6.31 µM [inhibitor, full curve]
35 | COc1cc(C(=O)/C=C/c2cccnc2)c([N+](=O)[O-])cc1OC | inconclusive: 35.5 µM [inhibitor, single point]
36 | Cc1cc2c(cc(C(=O)OCC(=O)NCc3ccco3)n2C)s1 | inconclusive: 10 µM [inhibitor, partial curve]
37 | COc1ccc(CN2COc3ccc4c(-c5ccccc5)cc(=O)oc4c3C2)cc1OC | inactive
38 | CCOC(=O)c1nc(N)c(C(=O)OCC)[nH]1 | inactive
39 | COc1ccc(COc2cc(-c3cccc(OC)c3)nc3ccc(NC(=O)C(C)C)cc23)cc1 | inconclusive: 6.31 µM [inhibitor, partial curve, poor fit]
40 | N#C/C(=C/c1ccc(N2CCOCC2)o1)c1ccc(Cl)cc1 | active: 7.08 µM
41 | CC(C)(C)NC(=O)C(c1ccc(-c2ccccc2)cc1)N(C[C@H]1CC[C@@H]([C@@H]2CC[C@H](CO)O2)O1)C(=O)c1ccccc1F (stereo partly specified) | inactive
